Here are results for 167 variants from the RNAGym collection of RNA variant scans (doi:10.7554/elife.90254).

Read counts are not given, so values of variants with three or more changes are uncertain.

To fix the notation:
B1: OR4K15 (parent)
chain: GUUAACGGUCAUAGGCCAUGGAAACUAGGAGCACCAUUUCGCUGCCAGUGAAGAAAUGAACAAAGAAAAUCUGGGCCAGGCAGGCAUCAAAAGAAAUAGUCUUGCGCUCAACCAGAAAGUCUGUAAUCAUUUUAAGGGUA

In this series the parent is B1. Put plainly: self-cleavage, relative activity (ratio to wild type); higher = more cleavage; in vitro, sequencing; the parent is a self-cleaving ribozyme.
Turning to A33G A56G U72G A82G, the self-cleavage worked out at 0.13. For A36U U57A A96G A111U, the self-cleavage amounted to 0.06. For A33G A36G U49C A59G U131C the value was 0.6; for A33G U72C A86G A135G, 0.29.

A33G A62G A68G A82U U87C A96G: the self-cleavage was found to be 0.02. For the variant A33U A55G A89G, the self-cleavage worked out at 1.27. For the variant A33G G41A C105U U122C, the self-cleavage worked out at 0.05. On to A36G U38C U102C U131A, for which the self-cleavage worked out at 2.38.

Regarding A33U A55G U103C U122C, the self-cleavage came to 0.49. For the variant A36C U37A U131C, the self-cleavage worked out at 1.95.

Regarding A33U A64G A92G C105U U120C, the self-cleavage stood at 0.15. As for A36U A91G U100A U130C, the self-cleavage came out at 0.39. Turning to A36G A52G A63G U108C A125G A126G, the self-cleavage turned out to be 0.01. For the variant A33G U37A U108C U122A, the self-cleavage is 0. For the variant C35U A63G A67G A92G A96C A140U, the self-cleavage was determined as 1.92. The value for C34U A94U A135G was 1.77; that for A33G A64G A90G C105U A116G U132C was 0.04; that for A33U U38A A56G A86C U122C was 1.21. The value for A33U A51G A56G U130C was 0.99; that for C35A U43C U130C U131C was 1.04; that for A36U A59G A66U A68G A95G U122C was 1.02. In the case of A33G A51U U102C, the self-cleavage was 1.36. A36G A66U A90G: the self-cleavage was determined as 1.88. In the case of A33G A52G A86C U133C, the self-cleavage came to 0.98. For A36U G73A A96G A118U U120A U127C the value was 0.04.

As for C35A A47U U49C, the self-cleavage was 0.47.

On to A36U A86G G106A U122A, for which the self-cleavage turned out to be 0.01.

On to A36G U43A A91G U100C U131C A140G, for which the self-cleavage worked out at 2.5.

Consider A33U A54G A126G, for which the self-cleavage came out at 1.98. The value for A33U A86G A92G was 1.83; that for A33G A91G A118G was 0.16; that for A33C U72C U87A was 0.16. A33G A55G A62G A66G A92G U124C U130C: the self-cleavage was determined as 0.24. A36G C77A A78U: the self-cleavage was 2.07.

On to A33U A63G A89U A126U A134G, for which the self-cleavage was found to be 1.57.

As to C35U A64G A92G, the self-cleavage came out at 1.02. The value for C34G U49A A55G G74A U100C A135G was 0.13. A33G U108C C113A: the self-cleavage worked out at 0. As for A33U C76A G83A, the self-cleavage came to 0.11. Consider A33C G53U A94G U122C A129U, for which the self-cleavage was found to be 0.3. In the case of A36G A52G A89G A92G, the self-cleavage is 1.63.

Take A33U A67G A117G: the self-cleavage came to 2.67. A36G A98G U124A: the self-cleavage was found to be 0.11. Turning to A33U A92G U120A, the self-cleavage is 2.52. For C35U A56G A64G U72C A118G the value was 0.05; for C35G U49C A64G A86U U103A A129U, 0.11; for A33G A63G A78G, 0.13. Take A36G U102C A111G: the self-cleavage was 0.03. Turning to A33G A36C A92C, the self-cleavage was 2.16. For A33G A68G A89G the value was 0.93; for A33U U102C A111C, 0; for A36U A55G A59G, 1.39. For C35A U37C G115A the value was 0.09; for A33U A36G U87A A90G A96G, 1.76.

As for A33U A114G A117G, the self-cleavage is 0.8. For A36U A56G A116G A126G the value was 0.74; for A33U U37A A116G, 0.98; for A33U A64G U97C, 1.18. Turning to A33G U57C A66G, the self-cleavage is 1.37.

Turning to A33G A59G A60G, the self-cleavage came to 0.96. In the case of A36U A116G U132A, the self-cleavage was 0.06. For A33U A82G U139C the value was 0.36; for A33G A52G U120C, 0.25; for A33G C40U A116U, 0.05.

As for A33G U38C A78G A89G A111G U124C, the self-cleavage amounted to 0.02. For the variant A33G G48A A91G A114G U122C U132C, the self-cleavage came to 0.01. A36C U49A A66G U87C: the self-cleavage was found to be 1.82. For A36U A54G A67G A92G A114C the value was 0.03; for A33G A60G A116G, 0.34; for A36U A56G A95G A114U, 0.1. As to C34U A59G A96G, the self-cleavage is 0.1.

Turning to A36G A63G U72A A96C U102A, the self-cleavage amounted to 0.08. Turning to A33G A66U U130C, the self-cleavage worked out at 0.6. Consider A36U A60G U70C A78U C128U, for which the self-cleavage is 0.12. For A36U A86U U103A U120A, the self-cleavage amounted to 1.84. Consider A33U A68G A125G, for which the self-cleavage was 0.43.

Turning to A36G A90G U103C U139C, the self-cleavage was found to be 1.05. With A36G A116G U120C, the self-cleavage was 0.25. Turning to A33U A67U U72A A117G U131C, the self-cleavage was found to be 0.2. On to A36G U49C G83A A116U, for which the self-cleavage came out at 0.92. For A33U G50A A60G U87C C88U U133A the value was 1.11. In the case of A36G A90U U127A U131A A140C, the self-cleavage came to 1.8. A33G A62G A117G: the self-cleavage was found to be 1.42. Consider A33G A47G A64G, for which the self-cleavage worked out at 0.77. For the variant A33G C42A A67U, the self-cleavage stood at 0.56. As to C34A A94G A117G, the self-cleavage amounted to 2.28. Consider A36G A94G A116G, for which the self-cleavage amounted to 1.05. For A33G A52G A68G A92U the value was 1.37; for A36G A52G A56G U139C, 1.17; for A36U U72A A90G A117G, 0. For A33G A55G U102A, the self-cleavage came out at 0.39.

A33U A36U A47G U102C: the self-cleavage worked out at 1.43. For C35U A54G A60G the value was 0.4. For A33G A52G A86G A89U U103C the value was 0.1; for A33G A54G A67U, 0.89. The value for A36G A92G U120C was 0.75; that for A33G U43C A59G U103C was 0.34. For A36U A52C U72A A110G A118U, the self-cleavage was 0.01. The value for A33U G74A A140G was 0.28; that for C35U A52U A68U was 1.62. For the variant C34U A55G A60G A67U A129G, the self-cleavage is 1.53. Turning to A33G A56C U57C A67G U100C A114U U122C U132C, the self-cleavage was determined as 0.01. As for C35U A117U A135G, the self-cleavage was 0.51. With A36U U37C G123A, the self-cleavage is 2.47. For A36U U38C C45A A118G the value was 0.76; for A36G A64U G84U A91G, 0.14.

In the case of A36C G48A A54G U130C, the self-cleavage came to 0.73. In the case of A33G A60G U72A, the self-cleavage amounted to 0.13. Consider A36C U97C A114G, for which the self-cleavage was found to be 0.32.

Take C34U G115A A126G: the self-cleavage was determined as 0.03. For A36G U108C A134G the value was 0.01; for A33G A60G U127C, 0.24. As for A33G G80U A82G A90G, the self-cleavage is 0.05.

As for A33C A78G C101U A118G U127C, the self-cleavage amounted to 0.01. Consider A36G C109A U132C, for which the self-cleavage amounted to 0.21. For A33G A55U A62U the value was 0.72. The value for A36G U38C A86G U87C was 1.09; that for A33G U39A U127A was 1.09.

Consider A36G A96G U102C A118G, for which the self-cleavage came out at 1.51.

Consider A33U G104U U108C, for which the self-cleavage stood at 0. Turning to A36G A86G U103C, the self-cleavage amounted to 0.9.

Turning to A33G U87C A94G, the self-cleavage was 0.9. On to A36U A62G A96G U103G, for which the self-cleavage was 0.02. On to A36U G79U A114G U124C, for which the self-cleavage worked out at 0.01. The value for U37A A78U A92U A96G was 0.09; that for A33G A52G A64G U87C G106A was 0.02; that for A33G A54G U70C A96G U120A was 0.29. In the case of A36U U122A A135G, the self-cleavage came to 1.38. In the case of C34U A63G A86G, the self-cleavage came to 0.89. The value for A33G A91G A114U was 0; that for A36G A68G A111U was 0.07. As to A33U A47U A69G, the self-cleavage amounted to 1.15. A36U C42U A56G U70C U87C: the self-cleavage came to 0.84. Regarding A36G A91G A111G, the self-cleavage was 0.02. With A36G A92G A126G, the self-cleavage amounted to 1.03.

For A33G C35U A56G A59U A63G, the self-cleavage came to 0.64.

Regarding A36C U49C C105U U130C, the self-cleavage came to 0.04. As for A36G U100C A118G, the self-cleavage was found to be 1.57. The value for C32U U70C U87C U102C was 1.65; that for A36U A52U U87A U100A A126G U127C was 0.12; that for C34A A90G U108C was 0.03. As for A36U U43C A51G U131C, the self-cleavage was found to be 1.04.

Regarding A36U U38C A78U A116G, the self-cleavage is 0.08. In the case of A36G C113U A117G, the self-cleavage turned out to be 0.19.

In the case of A33G A114G A125G, the self-cleavage was 0.05.

Consider A36G A66G U130C, for which the self-cleavage came to 1.32. For A33G U37C A118U, the self-cleavage came to 0.28. For A33G U43G A116G the value was 0.43. On to A36G A95G U130C, for which the self-cleavage was determined as 2.09. On to A33C U38C U49C A92C, for which the self-cleavage was determined as 1.95. As to A33G U38C A63G, the self-cleavage is 0.79. Consider C35U U37C A68G, for which the self-cleavage was found to be 1.58. For A33U C45G A60C G74A, the self-cleavage came out at 0.32. As for C34U A67G G83A A117G U131C, the self-cleavage came out at 2.72. For A36G A64G U127C the value was 1.13; for A33G U72G A92G, 0.03; for A36G C71A U120A, 0.22. As for A36U A60G A135G, the self-cleavage stood at 1.78. A33G A56U A95G: the self-cleavage worked out at 2.09. The value for A33G A60G A92G U108C A140G was 0.01; that for A33G A66G A68G A95G was 1.24; that for A36G A55U A82G A118G was 0.1. As for A33G A52U A67G A90G, the self-cleavage is 0.14. Take A36G U43C U49C U100C: the self-cleavage came to 1.71.

In the case of A33G A59G A95G, the self-cleavage was 1.74. Turning to A33G A89G A111G A117G U120C A126U, the self-cleavage is 0.

On to A33G C71A U127C, for which the self-cleavage turned out to be 0.03.
